From PMC10185812 come the findings set out here.

Results are given in words; binding and its absence hold for the method and conditions named. Binding seen in cells or lysates may run through a third protein. Some entries that bind do so weakly or less than the wild type. Where a sequence is shown, tags or fusion partners need not be part of it.

Experiment in all cases: co-IP; ARPE-19 transiently co-transfected with tagged C21ORF2 (GFP or 3xHA) and 3xFLAG-NEK1 (full length, truncated or mutated); immunoprecipitation with anti-FLAG antibodies; washes with 500 mM NaCl, 1% Triton X-100; immunoblotting
Experiment [1] concerns the target T1, 3xFLAG-NEK1 1,160-1,286 (human) (UniProt Q96PY6).
T1 sequence: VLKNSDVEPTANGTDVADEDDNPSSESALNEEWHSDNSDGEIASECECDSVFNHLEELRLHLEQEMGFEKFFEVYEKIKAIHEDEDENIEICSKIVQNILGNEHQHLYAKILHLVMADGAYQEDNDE

The target in the next experiment is T2, 3xFLAG-NEK1 (human) (UniProt Q96PY6).
T2 sequence: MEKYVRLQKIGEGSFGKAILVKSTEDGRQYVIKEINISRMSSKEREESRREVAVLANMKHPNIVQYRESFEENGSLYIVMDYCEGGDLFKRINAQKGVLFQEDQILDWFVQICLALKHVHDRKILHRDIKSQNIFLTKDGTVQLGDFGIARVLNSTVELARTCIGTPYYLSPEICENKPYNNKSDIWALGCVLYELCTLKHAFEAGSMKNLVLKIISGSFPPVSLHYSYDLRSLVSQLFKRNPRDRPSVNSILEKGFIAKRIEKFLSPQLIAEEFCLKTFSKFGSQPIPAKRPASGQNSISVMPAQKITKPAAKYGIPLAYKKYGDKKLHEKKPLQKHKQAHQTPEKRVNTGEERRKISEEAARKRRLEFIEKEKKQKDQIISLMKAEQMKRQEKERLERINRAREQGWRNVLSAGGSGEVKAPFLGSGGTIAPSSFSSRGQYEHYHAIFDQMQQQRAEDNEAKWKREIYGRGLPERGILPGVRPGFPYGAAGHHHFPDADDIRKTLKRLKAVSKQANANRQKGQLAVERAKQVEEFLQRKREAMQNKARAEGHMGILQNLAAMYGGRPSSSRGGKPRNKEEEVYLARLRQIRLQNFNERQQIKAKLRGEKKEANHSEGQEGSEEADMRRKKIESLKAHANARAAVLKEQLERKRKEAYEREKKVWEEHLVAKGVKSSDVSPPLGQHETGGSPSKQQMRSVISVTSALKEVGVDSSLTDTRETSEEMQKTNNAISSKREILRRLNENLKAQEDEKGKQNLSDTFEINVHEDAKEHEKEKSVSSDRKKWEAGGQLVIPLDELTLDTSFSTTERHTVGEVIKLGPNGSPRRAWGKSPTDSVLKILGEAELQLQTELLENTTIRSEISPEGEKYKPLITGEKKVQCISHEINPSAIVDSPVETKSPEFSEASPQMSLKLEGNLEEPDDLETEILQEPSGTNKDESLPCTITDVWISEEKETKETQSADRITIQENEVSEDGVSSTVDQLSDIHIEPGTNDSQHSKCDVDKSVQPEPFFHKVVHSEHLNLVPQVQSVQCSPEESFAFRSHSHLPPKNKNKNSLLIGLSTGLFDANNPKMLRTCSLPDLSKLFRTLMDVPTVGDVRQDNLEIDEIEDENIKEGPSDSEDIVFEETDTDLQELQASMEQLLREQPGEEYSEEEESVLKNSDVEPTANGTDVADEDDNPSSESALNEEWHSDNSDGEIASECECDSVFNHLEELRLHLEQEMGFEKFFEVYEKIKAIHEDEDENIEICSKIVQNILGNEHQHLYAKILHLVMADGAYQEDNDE

For experiment [2], the target named is T3, 3xFLAG-NEK1 R261H (human) (UniProt Q96PY6).
T3 sequence: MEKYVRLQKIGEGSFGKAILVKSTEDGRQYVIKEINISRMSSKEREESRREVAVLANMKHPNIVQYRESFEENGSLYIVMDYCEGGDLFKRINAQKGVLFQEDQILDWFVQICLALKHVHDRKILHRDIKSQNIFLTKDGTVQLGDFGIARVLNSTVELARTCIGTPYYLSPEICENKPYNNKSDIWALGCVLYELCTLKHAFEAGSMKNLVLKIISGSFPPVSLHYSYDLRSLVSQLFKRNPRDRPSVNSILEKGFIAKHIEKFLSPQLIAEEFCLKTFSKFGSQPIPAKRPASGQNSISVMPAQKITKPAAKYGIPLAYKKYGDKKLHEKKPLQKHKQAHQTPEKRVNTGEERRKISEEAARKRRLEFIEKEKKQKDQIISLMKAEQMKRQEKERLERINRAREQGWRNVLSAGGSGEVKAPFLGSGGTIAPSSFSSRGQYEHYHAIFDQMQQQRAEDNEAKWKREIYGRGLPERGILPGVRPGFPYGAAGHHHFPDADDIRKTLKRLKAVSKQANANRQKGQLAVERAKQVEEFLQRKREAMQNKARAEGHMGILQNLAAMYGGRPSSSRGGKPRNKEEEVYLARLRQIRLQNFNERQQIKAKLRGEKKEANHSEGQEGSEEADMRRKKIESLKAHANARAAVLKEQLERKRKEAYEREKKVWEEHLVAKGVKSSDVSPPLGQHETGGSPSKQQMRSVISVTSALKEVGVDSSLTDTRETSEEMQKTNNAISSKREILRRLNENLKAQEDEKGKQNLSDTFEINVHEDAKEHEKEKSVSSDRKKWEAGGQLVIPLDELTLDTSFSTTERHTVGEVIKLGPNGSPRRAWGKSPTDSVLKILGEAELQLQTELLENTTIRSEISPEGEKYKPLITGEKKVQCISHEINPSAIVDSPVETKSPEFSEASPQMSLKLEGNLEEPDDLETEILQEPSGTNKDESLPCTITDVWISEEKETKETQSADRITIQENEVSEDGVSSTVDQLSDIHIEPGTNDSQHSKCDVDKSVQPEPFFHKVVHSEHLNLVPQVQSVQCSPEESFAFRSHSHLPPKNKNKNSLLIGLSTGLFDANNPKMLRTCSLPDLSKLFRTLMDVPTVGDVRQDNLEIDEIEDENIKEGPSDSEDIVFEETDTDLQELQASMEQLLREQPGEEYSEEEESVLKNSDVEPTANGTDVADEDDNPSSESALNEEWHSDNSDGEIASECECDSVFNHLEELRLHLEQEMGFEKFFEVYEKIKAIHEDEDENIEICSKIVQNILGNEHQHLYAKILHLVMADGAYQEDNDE

B1: GFP-C21ORF2 (protein, UniProt O43822-1 1-256)
chain: MKLTRKMVLTRAKASELHSVRKLNCWGSRLTDISICQEMPSLEVITLSVNSISTLEPVSRCQRLSELYLRRNRIPSLAELFYLKGLPRLRVLWLAENPCCGTSPHRYRMTVLRTLPRLQKLDNQAVTEEELSRALSEGEEITAAPEREGTGHGGPKLCCTLSSLSSAAETGRDPLDSEEEATSGAQDERGLKPPSRGQFPSLSARDASSSHRGRNVLTAILLLLRELDAEGLEAVQQTVGSRLQALRGEEVQEHAE
As for B1, the binding result (in experiment [1]; with 3xFLAG-NEK1 (human)) was “binds” throughout.

B2: 3xHA-C21ORF2 (protein, UniProt O43822-1 1-256)
chain: MKLTRKMVLTRAKASELHSVRKLNCWGSRLTDISICQEMPSLEVITLSVNSISTLEPVSRCQRLSELYLRRNRIPSLAELFYLKGLPRLRVLWLAENPCCGTSPHRYRMTVLRTLPRLQKLDNQAVTEEELSRALSEGEEITAAPEREGTGHGGPKLCCTLSSLSSAAETGRDPLDSEEEATSGAQDERGLKPPSRGQFPSLSARDASSSHRGRNVLTAILLLLRELDAEGLEAVQQTVGSRLQALRGEEVQEHAE
As to B2, the binding entry (in experiment [2]; with 3xFLAG-NEK1 (human)) was “binds” each time.
